Counter-ions that a name gives are not always drawn.
Test system: Arrythmia Model Induced by Two Step Ligation of Canine Coronary Artery
Experiment: Suppressive action on arrythmia induced by two step ligation of canine coronary artery
Conditions: before start of administration 100
Procedure: [Suppressive Action on Arrythmia Induced by Two Step Ligation of Canine Coronary Artery]
After anesthetizing with 30 mg/kg (i.v.) of thiopental sodium, a beagle dog was ventilated by artificial respiration under a condition of 20 mL/kg and 22 strokes/min. The fifth left intercostal space was opened under sterile condition to incise membrana pericardiac cavity, and the heart was hanged in the thoracic cavity. The left anteirior descending limb of the coronary artery was peeled at 1 cm downstream of the joint to the circumflexus branch, and the artery was wound with two strings of sutures. Blood vessel of the artery was at first ligated together with a 19G needle with a round tip, and the constriction is prepared by pulling out the needle (one step ligation). Thirty minutes after the first ligation, the artery was completely ligated with the other suture (two step ligation). A dipolar electrode was stitched on the left atrial auricle for recording atrial potential. […] The aortic blood pressure was measured using a pressure transducer. […] The heart rate was measured using the R—R interval on the electrocardiogram or from the blood pressure. Each signals were recorded with a chart recorder with verification on a monitor, while simultaneously recording on a magnetic medium using a personal computer. […]

`CCCCOc1ccc(N(C)CCC2(O)CCN(Cc3ccccc3)CC2)cc1` [Example 146, 1-benzyl-4-[2-[N-(4-n-butoxyphenyl)-N-methylamino]ethyl]piperidin-4-ol dihydrochloride] was tested, and the “Arrythmia Ratio” value (15 minutes after continued injection at 10 mg/kg/hr) was 49 and the “Arrythmia Ratio” value (30 minutes after continued injection at 10 mg/kg/hr) was 21.

Source: patent US6710060B2, “4-hydroxypiperidine derivatives having antiarrhythmic activity” (Mochida Pharmaceutical Co., Ltd., priority 1999, dated 2004)
